Several values for one entry are separate records, joined by “and”; a condition that tells them apart may be missing. Equal values may be shown once.
Test system: WSU cell line
Conditions: drug alone, MTT 72 hours, mean of three independent experiments ± SE

O=C(O)CCCc1ccc(N(CCCl)CCCl)cc1 [CLB, chlorambucil]
LD50: 34 µM and 34.00 ± 2.82 µM

From patent US8492383B2 (Jewish General Hospital, priority 2002, dated 2013)
